Results taken from the RNAGym collection of RNA variant scans (doi:10.1093/nar/gkz1192).
The source gives no read counts; variants with many changes may rest on few reads.

B1: CPEB3 Ribozyme (parent)
chain: UAACAGGGGGCCACAGCAGAAGCGUUCACGUCGCAGCCCCUGUCAGAUUCUGGUGAAUCUGCGAAUUCUGCUGUAUAUCUC

Variants of: B1
Assay: self-cleavage, relative activity (ratio to wild type); higher = more cleavage; in vitro, sequencing
Summary of the method: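 Relative activity compares each variant's cleaved/total read fraction with that of the unmutated ribozyme. To get these fractions, barcoded CPEB3 ribozyme libraries from rounds of error-prone PCR were transcribed with T7 RNA polymerase for 5 hours at 37°C and then given 15 min of DNase I treatment before EDTA was added. The RNAs were reverse transcribed with template switching and sequenced on Illumina, and DNA sequencing linked barcodes to variants. A minimum of 5 reads applied, and three batches were averaged.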

Row | Variant | self-cleavage
1 | UAACAGGGGGCCACAGUUGAAGCGUUCACGUCGCAGCCCCCGCCAGAUUCUGGUGAAUCUGCGAAUUCUGCUGUAUACCUC [C17U A18U U41C U43C U78C] | 0.14
2 | UAACAGGGGGCCACAGUUGAAGCGUUCACGUCGCAGCCCCCGUCAGAUUCUGGUGAAUCGGCGAAUUCUUCUGUAUACCUC [C17U A18U U41C U60G G70U U78C] | 0.06
3 | UAACAGGGGGCCACAGUUGAAGCGUUCACGUCGCAGCCCCCGUCAGAUUCUGGUGAAUCUGCGAACUCUGAUGUAUACCUC [C17U A18U U41C U66C C71A U78C] | 0.06
4 | UAACAGGGGGCCACAGUAGGAGCGUUCGCGUCGCAGCCCCUGUCAGAUUCUGGUGAAUCUGCGAACUCUGCUGUAUACCUC [C17U A20G A28G U66C U78C] | 0.06
5 | UAACAGGGGGCCACAGUAGGAGCGUUCACGUCGCAGCCCCUGUCAGAUUCUGGUGAAUCUGCGGAUUCUGCUGUAUAUCUC [C17U A20G A64G] | 0.16
6 | UAACAGGGGGCCACAGUAGGAGCGUUCACGUCGCAGCCCAUGUCAGAUUCUGGUGAACCUGCGAAUCCUGCUAUAUAUCUC [C17U A20G C40A U58C U67C G73A] | 0.06
7 | UAACAGGGGGCCACAGUAGGAGCGUUCACGUCGCAGCCCCUGUCAGACUCUGGUGAAUCUGAGAAUUCUGCUGUACAUCUC [C17U A20G U48C C62A U76C] | 0.14
8 | UAACAGGGGGCCACAGUAGAGGCGCUCACGUCGCAGCCCCUGUCAGAUUCUGGUGAAUCUGCGAAUUCUGCUGUACAUCUC [C17U A21G U25C U76C] | 0.21
9 | UAACAGGGGGCCACAGUAGAGGCGUUCACGUCGCAGCCCCUGCCAGAAUCUGGUGAAUCUGCGAAUUCUGCUGUAUAUUUC [C17U A21G U43C U48A C79U] | 0.06
10 | UAACAGGGGGCCACAGUAGAUGCGUUCACGUCGCAGCCCCUGUCAGACUCUGGUGAAUCUGCGAAUUCUGCUGUAUGUCAC [C17U A21U U48C A77G U80A] | 0.3
11 | UAACAGGGGGCCACAGUAGAAGCGUUCCCGUCGCAGCCCCUGUCAGAUUCCGGUGAAUCUGCGAAUUCUGCUGUAUAUCUC [C17U A28C U51C] | 0.33
12 | UAACAGGGGGCCACAGUAGAAGCGUUCGCGUCGCUGCCCCUGCCAGAUUCUGGUGAAUCUGCGAAUUCUGCUGUAUUUCUC [C17U A28G A35U U43C A77U] | 0.13
13 | UAACAGGGGGCCACAGUAGAAGCGUUCGCGUCUCAGCCCCUGCCAGAUUCUGGUGAAUCUGCGAAUUCAGCUGUAUAUCUC [C17U A28G G33U U43C U69A] | 0.07
14 | UAACAGGGGGCCACAGUAGAAGCGUUCUCGUCGCAGCCCCCGUCAUAUCCUGGUGGAUCUGCGAAUUCUGCUGUAUAUCUC [C17U A28U U41C G46U U49C A56G] | 0.06
15 | UAACAGGGGGCCACAGUAGAAGCGUUCACGUCGCUGCCCCUGUCCGAUUCUGGUGAAACUGCGAAUUCUGCUGUAUAUCUC [C17U A35U A45C U58A] | 0.07
16 | UAACAGGGGGCCACAGUAGAAGCGUUCACGUCGCAGCCCCUGUCCGAUUCUGGUGAAUCUGCGAAUUCAGCUGUAUAUCUC [C17U A45C U69A] | 0.17
17 | UAACAGGGGGCCACAGUAGAAGCGUUCACGUCGCAGCCCCUGUCUGAUUCUGGCGAAUCUGCGAGUACUGCUGUAUAUCUC [C17U A45U U54C A65G U67A] | 0.12

Row | Variant | self-cleavage
18 | UAACAGGGGGCCACAGUAGAAGCGUUCACGUCGCAGCCCCUGUCAGAUUCUGGUGUAUCCGCGAAUUCUGCAGUAUAUCUC [C17U A56U U60C U72A] | 0.14
19 | UAACAGGGGGCCACAGUAGAAGCGUUCACGUCGCAGCCCCUGUCAGAUUCUGGUGAAUCUGCGGAUUCGGCUGUAUAUCCC [C17U A64G U69G U80C] | 0.1
20 | UAACAGGGGGCCACAGUAGAAGCGUUCACGUCGCAGCCCCUGUCAGAUUCUGGUGAAUCUGCGUGUUCUGCUGUAUUUCUC [C17U A64U A65G A77U] | 0.13
21 | UAACAGGGGGCCACAGUAGAAGCGUUCACGUCGCAGCCCCUGUCAGAUUCUGGUGAAUCUGCGAGUUCUGCUGAAUAUCUC [C17U A65G U74A] | 0.37
22 | UAACAGGGGGCCACAGUAGAAGGGUUCACGUCGCAGCCCCUGUCAGGUUCUGGUGAGUCUGCGAAUUCUGCUGUAUAUCUC [C17U C23G A47G A57G] | 0.07
23 | UAACAGGGGGCCACAGUAGAAGUGUUCACGACGCAGCCCCUGUCAGAUUCAGGUGAAUCUGCGAAUUCUGCUGUAUAUCUC [C17U C23U U31A U51A] | 0.1
24 | UAACAGGGGGCCACAGUAGAAGUGUUCACGCCGCAGCCCCCGUCAGAUUCUGGUGAAUCUGCGAAUUCUGCUGUAUAUCUC [C17U C23U U31C U41C] | 0.05
25 | UAACAGGGGGCCACAGUAGAAGCGUUCAAGUCGCAGCCCCUGUCAGAUCCUGGUGAAUCUGCGAAUUCCGCUGUAUAUCUC [C17U C29A U49C U69C] | 0.23
26 | UAACAGGGGGCCACAGUAGAAGCGUUCAGGUCGCAGCCCCUGUCAGAUUCUGGUGAACCUGCGAAUUCUGCUGUAUAACUC [C17U C29G U58C U78A] | 0.03
27 | UAACAGGGGGCCACAGUAGAAGCGUUCAUGUCGCAGCCCCUGUCAGAUUCUGGCGAAUCUGCGAAUUCUGCUGUAUAUCUC [C17U C29U U54C] | 0.28
28 | UAACAGGGGGCCACAGUAGAAGCGUUCACGUUGCUGCCCCUGUCAGAUUCUGGUGAAUCUGCGAACUCUGAAGUAUAUCUC [C17U C32U A35U U66C C71A U72A] | 0.07
29 | UAACAGGGGGCCACAGUAGAAGCGUUCACGUCGUAGCCCCUGUCAGUCUCAGGUGAAUCUGCGGAUCCUGCUGUAUAUCUC [C17U C34U A47U U48C U51A A64G U67C] | 0.07
30 | UAACAGGGGGCCACAGUAGAAGCGUUCACGUCGCAGACCCUGUCAGAUCCUGGUGAAUCCGCGAAUUCUGCUGUAUAUCUC [C17U C37A U49C U60C] | 0.07
31 | UAACAGGGGGCCACAGUAGAAGCGUUCACGUCGCAGUCCCCGUCAGAUUCUGGUGAAUCUGCGAAUUCUGCUGUAUAUCUC [C17U C37U U41C] | 0.51
32 | UAACAGGGGGCCACAGUAACAGCGAUCACGUCGCAGCCCCUGUCAGAUUCUGGGGAAUCUGCGAACUCUGCUGUAUAUCUC [C17U G19A A20C U25A U54G U66C] | 0.23
33 | UAACAGGGGGCCACAGUAGAAGCGUUCACGUCGCAUUCCCUGUCAGAUCCUGGUGAAUCUGCGAAUUCUGCUGUGUAUCUC [C17U G36U C37U U49C A75G] | 0.04
34 | UAACAGGGGGCCACAGUAGAAGCGAUCACGUGGCAGCCCCUGUCAGAUUCUGGUGAAUCUGCGAAUACUGCUGUAUAUCAC [C17U U25A C32G U67A U80A] | 0.15
